According to PubChem BioAssay AID1347043 (National Center for Advancing Translational Sciences (NCATS), 2019):
Out of some 76,000 compounds screened, about 1,900 (2.5%) were called active. Inconclusive means that the source gave no clear call. Such entries were picked first, then a sample of the others. Calls follow the shape of the dose curve; as a rule, active = well fitted inhibition curve with a large enough effect; inconclusive = small, poorly fitted or top-dose-only effect; inactive = flat fitted curve, though single readings scatter. A potency beside an inconclusive call is a rough fit, not a confirmed value.

target: Luciferin 4-monooxygenase (Photinus pyralis) (UniProt P08659); test: Firefly luciferase inhibition profiling of diverse chemical library using quantitative high-throughput screening; also: nearly all actives have a fitted effect of over 65% in size; details: purified P. pyralis luciferase, luminescence, biochemical; activity change, negative = inhibition: at 115 µM (top of the series) unless noted
Chain of UniProt P08659 (P08659 whole entry, looked up): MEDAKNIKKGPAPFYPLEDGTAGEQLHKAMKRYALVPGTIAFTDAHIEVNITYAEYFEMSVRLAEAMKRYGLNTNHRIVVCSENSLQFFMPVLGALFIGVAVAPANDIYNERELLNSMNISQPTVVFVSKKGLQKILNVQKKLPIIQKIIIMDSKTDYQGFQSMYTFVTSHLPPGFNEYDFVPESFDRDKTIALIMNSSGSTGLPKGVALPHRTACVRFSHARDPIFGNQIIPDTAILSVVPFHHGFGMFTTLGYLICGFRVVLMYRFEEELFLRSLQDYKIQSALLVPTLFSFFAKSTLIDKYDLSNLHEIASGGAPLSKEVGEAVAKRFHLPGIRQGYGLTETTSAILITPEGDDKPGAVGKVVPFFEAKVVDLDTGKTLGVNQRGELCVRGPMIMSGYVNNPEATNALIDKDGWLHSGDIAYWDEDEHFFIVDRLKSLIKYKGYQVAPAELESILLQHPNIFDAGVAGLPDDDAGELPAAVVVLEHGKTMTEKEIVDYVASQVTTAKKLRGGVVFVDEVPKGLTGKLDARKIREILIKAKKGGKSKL
In short: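 Inhibitors were tested against purified firefly luciferase in a biochemical, low-substrate format (both substrates at 10uM) and luminescence measured with a CCD imager.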
% is scaled to controls: 0 for no effect and ±100 for the full control effect; potency is read from the fitted curve at half-maximal effect; tags tell the direction and shape of the fitted curve.

| SMILES | activity change, negative = inhibition | Potency |
| --- | --- | --- |
| COc1cc(OC)cc(C(=O)N2CCCN(c3cc(-c4ccc(C)c(C)c4)[nH]n3)CC2)c1 | inactive: -5.19% | – |
| COc1ccc(NC(=O)c2ccc3c(c2)C(O)CCCCCN3C)cn1 (configuration not stated) | – | inconclusive: 44.7 µM [inhibitor, partial curve] |
| Nc1cccn2nc(-c3ccccc3)nc12 | – | active: 15.8 µM |
| CC(C)N1C[C@H](C(=O)NCCOc2ccccc2)[C@H](C(=O)O)C1 | – | inconclusive: 39.8 µM [inhibitor, partial curve] |
| Cc1cccc(OCC(=O)c2ccc3c(c2)N(C(C)C(=O)N2CCCC2)C(=O)CO3)c1C (configuration not stated) | – | inconclusive: 44.7 µM [inhibitor, partial curve] |
| N#Cc1ccc(S(=O)(=O)N2CCC3(CC2)CC2C(=O)NCCN2C3)cc1 (configuration not stated) | inactive: -13.7% | – |
| O=C(CC(c1ccccc1)c1ccc2c(c1)OCO2)N1CCCCCC1 (configuration not stated) | – | inconclusive: 44.7 µM [inhibitor, partial curve, poor fit] |
| CN(C)c1cccc(C(=O)N2CCN(C(=O)c3nnn4c3COC(c3ccccc3)C4)CC2)c1 (configuration not stated) | – | inconclusive: 44.7 µM [inhibitor, partial curve] |
| Cn1cc([C@@H](NC(=O)CN2CCOc3ccccc3C2)C2CC(O)C2)cn1 (some centres not stated) | inactive: 0% | – |
| O=C(Nc1cccc(F)c1)N1Cc2[nH]cnc2C[C@H]1c1nc(-c2ccccc2)no1 | inactive: -23.4% [at 172 µM] | – |
| O=C1CC2(CCN(Cc3cccc4ccccc34)CC2)Oc2cc(Cl)ccc21 | inactive: -10.1% | – |
| Cc1ccc(-c2nnc(C3CN(C(=O)Cc4cccc(C)c4)CC34CCOCC4)o2)cc1 (configuration not stated) | inactive: -1.89% | – |
| CN(C)c1ccc(C(=O)N[C@H]2CO[C@H]3[C@@H]2OC[C@@H]3Nc2nccc(-c3cccs3)n2)cc1 | – | inconclusive: 17.8 µM [inhibitor, full curve] |
| CC(=O)c1ccc(NC(=O)O[C@@H]2CO[C@H]3[C@@H]2OC[C@@H]3NC(=O)Nc2ccccc2)cc1 | – | inconclusive: 100 µM [inhibitor, single point] |
| O=C1CC(c2ccccc2)N(C(=O)CNC(=O)C2CC=CC2)CCCCCN1 (configuration not stated) | inactive: 2.65% | – |
| Cc1ccc(OCCC2CCN(C(=O)Cc3ccsc3)C2)cc1 (configuration not stated) | inactive: -6.84% | – |
| CC(C)C(Oc1ccccc1)C(=O)N1CCc2c(ncnc2N(C)C)C1 (configuration not stated) | – | inconclusive: 79.4 µM [inhibitor, single point] |
| COc1ccc(-c2nc3cc(C)ccc3cc2CN2CCC(NC(C)=O)C2)cc1 (configuration not stated) | – | inconclusive: 44.7 µM [inhibitor, partial curve, poor fit] |
| Cc1ccc(CNC(=O)N2CCc3c(nc4cc(-c5ccccc5Cl)[nH]n4c3=O)C2)cc1 | – | inconclusive: 12.6 µM [inhibitor, full curve] |
| CN1CCC[C@H]1c1nc(-c2ccc(F)cn2)no1 | – | inconclusive: 100 µM [inhibitor, partial curve] |
| Cc1ccc(-c2noc([C@@H]3C[C@@H](O)CN3Cc3ccccc3O)n2)cc1F | – | active: 50.1 µM |

| SMILES | activity change, negative = inhibition | Potency |
| --- | --- | --- |
| COCc1nc2nc(-c3ccccc3)c(-c3cccc(NC(C)=O)c3)cc2n1C | – | inconclusive: 112 µM [inhibitor, partial curve] |
| CCNC(=O)N(C1CC1)C1CCOC2(CCN(C(=O)CCCc3ccccc3)CC2)C1 (configuration not stated) | – | inconclusive: 39.8 µM [inhibitor, partial curve] |
| CC(=O)NC1(C)CCN(Cc2ccc(-c3ccc(N4CCOCC4)cc3)cc2)C1 (configuration not stated) | – | inconclusive: 35.5 µM [inhibitor, partial curve, poor fit] |
| Fc1ccccc1CN1CCNc2cc(Nc3cccnc3)ncc2C1 | – | active: 50.1 µM |
| O=C(NCCOc1ccccc1)c1cnc2n1CCN(Cc1ccc3[nH]ccc3c1)CC2 | inactive: -12.7% [at 172 µM] | – |
| CN(Cc1cccnc1)C1CN(C(=O)c2ccc3ccccc3n2)C1 | – | inconclusive: 44.7 µM [inhibitor, partial curve] |
| Fc1ccc2nc([C@H]3CCN(C4CCC4)C3)[nH]c2c1 | – | active: 5.01 µM |
| COc1ccc(C2Cn3nnc(C(=O)N4CCC(C(=O)NCc5ccc(C)cc5)CC4)c3CO2)cc1 (configuration not stated) | – | inconclusive: 50.1 µM [inhibitor, partial curve, poor fit] |
| O[C@@H]1C[C@@H](c2nc(-c3ccc(F)cc3)no2)N(CC2CCCCC2)C1 | – | inconclusive: 112 µM [inhibitor, single point] |
| O=C1CCCCN1CCNc1ccc(-c2nc(-c3ccccc3F)no2)cn1 | – | active: 14.1 µM |
| Cc1ccc(-c2cc(C(=O)N3CCC(Cc4nncn4C(C)C)CC3)c3ccccc3n2)cc1C | – | active: 5.62 µM |
| O=C1CCN(S(=O)(=O)c2ccccc2)CCCN(C(=O)Nc2ccc3c(c2)OCCO3)CCN1 | – | inconclusive: 56.2 µM [inhibitor, partial curve, poor fit] |
| Cc1c(F)cccc1NC(=O)C1CN(S(=O)(=O)C2CC2)CC12CCCCC2 (configuration not stated) | inactive: -4.1% | – |
| COc1ccc(CC(=O)NC2CCCN(c3cc(-c4ccc(Cl)cc4)[nH]n3)C2)cc1OC (configuration not stated) | inactive: 4.71% | – |
| Cc1c(-c2ccccc2)[nH]c2c(CNC(=O)c3ccc(=O)n(C)n3)cc(Cl)cc12 | – | inconclusive: 11.2 µM [inhibitor, full curve, poor fit] |
| CCOc1ccc(C2Cn3nnc(-c4nc(-c5ccccc5F)no4)c3CO2)cc1 (configuration not stated) | – | inconclusive: 25.1 µM [inhibitor, partial curve] |
| COc1ccc(NC(=O)O[C@@H]2CO[C@H]3[C@@H]2OC[C@@H]3NS(=O)(=O)c2ccc(Cl)cc2)cc1 | – | inconclusive: 50.1 µM [inhibitor, partial curve, poor fit] |
| CCCNc1cc(N2CCC(CCC(=O)NCc3ccc(Cl)cc3)CC2)ncn1 | – | inconclusive: 56.2 µM [inhibitor, partial curve] |
| N#Cc1cccc(-c2cn3c(n2)N(C(=O)c2cccs2)CCC3)c1 | – | inconclusive: 44.7 µM [inhibitor, partial curve] |
| COc1cc(C)c2c(c1C)C[C@H](C(C)C(=O)NC(C)(C)C)CC2 (some centres not stated) | inactive: 2.24% [at 172 µM] | – |
| COc1cccc(-c2cc(C(=O)N[C@@H](C)C(N)=O)[nH]n2)c1 | – | inconclusive: 56.2 µM [inhibitor, partial curve, poor fit] |
